# Measurements: PubChem BioAssay AID624296 (National Center for Advancing Translational Sciences (NCATS), 2012)
# The whole screen tested about 350,000 compounds, of which about 9,900 (2.8%) were called active. Inconclusive results, whose numbers are uncertain, are shown with a selection of clear calls. Calls come from the whole dose curve; as a rule, active = well fitted activation curve with a large enough effect; inconclusive = small, poorly fitted or top-dose-only effect; inactive = no such curve, though single readings can be large or run the other way. Potencies of inconclusive entries are left out as doubtful fits.
# Test: A quantitative high throughput screen for small molecules that induce DNA re-replication in MCF 10a normal breast cells. For activity, positive = re-replication: % of control where 0% means no effect. Note: nearly all actives have a fitted effect of over 50% in size.
# Conditions: MCF 10A DNA re-replication, Hoechst nuclear intensity, 48 h; activity, positive = re-replication: at 46.1 µM (top of the series)
# Potency is the fitted concentration of half-maximal effect; tags give direction and shape of the fitted curve.
SMILES,Potency,"activity, positive = re-replication"
CCCNC(=O)c1ccccc1NC(=O)c1ccccc1N(C)S(=O)(=O)c1ccccc1,"inconclusive [activator, single point]",
CCN(CC)S(=O)(=O)c1ccc(C)c(C)c1,inactive,
CCOC(=O)c1[nH]c2ccc(Br)cc2c1NC(=O)CCN1CCCC(C)(C)C1,"inconclusive [activator, single point]",
CN(C(=O)CSC1=Nc2ccccc2C2=NC(c3ccccc3)C(=O)N12)C1CCCCC1 (stereo not drawn),"inconclusive [activator, single point]",
Cc1cccc(N2CCN(C(=S)c3ccc4c(c3)OCO4)CC2)c1,active: 1.3 µM,
Cc1cc(C(C)c2ccccc2)c(O)c(CN2CCOCC2)c1C (stereo not drawn),"inconclusive [activator, partial curve, poor fit]",
COc1cccc(/C=N/NC(=O)C(=O)Nc2ccccc2OC(F)(F)C(F)F)c1,"inconclusive [activator, single point]",
COc1ccc(CCNS(=O)(=O)c2ccccc2)cc1OC,inactive,
C/C(CC(=O)NCc1ccco1)=N\NC(=O)COc1ccc(Cl)cc1Cl,"inconclusive [activator, single point]",
CN(CC1CCCN(CCc2ccc(Cl)cc2)C1)C(=O)c1ccc2nc[nH]c2c1 (stereo not drawn),"inconclusive [activator, partial curve, poor fit]",
Cc1ccc(Cl)cc1N(CC(=O)NC1CCCC1)C(=O)c1csnn1,inactive,
Cc1ccc(C(=O)N/C(=C\c2ccc(-c3ccc(Br)cc3)o2)C(=O)NCCCN(C)C)cc1,"inconclusive [activator, partial curve, poor fit]",
CCOc1ccc(/C=C/C(=O)N(CC)CC(=O)Nc2ccc3c(c2)OCCO3)cc1OCC,inactive,
CCOC(=O)c1c(-c2ccc(OC)cc2)oc2ccc(O)cc12,"inconclusive [activator, partial curve, poor fit]",
N#Cc1cn(-c2ccccc2)nc1C(=O)c1ccccc1,"inconclusive [activator, single point]",
CCNc1oc(-c2ccccc2F)nc1S(=O)(=O)c1ccccc1,inactive,
COc1cc(C(=O)Nc2cc(S(=O)(=O)N3CCOCC3)ccc2N2CCOCC2)cc(OC)c1C,inactive,
Cc1ccc(C(=O)NCC(c2cccs2)N(C)C)cc1S(=O)(=O)N1CCOCC1 (stereo not drawn),inactive,
COc1ccccc1CN1C[C@@H]2C[C@@H](C3=Cc4cc(Cl)ccc4OC3)N3CCC[C@@]23C1=O,"inconclusive [activator, single point]",
CCCS/C(N)=N/N=C/c1ccccc1O,"inconclusive [activator, single point]",
Cc1cccn2c(=O)c(C=O)c(N3CCCCCC3)nc12,"inconclusive [activator, single point]",
COc1ccc(-c2nn(C)c(=O)c3ccccc23)cc1CNS(C)(=O)=O,inactive,
CCN(CCCNS(=O)(=O)c1ccc2c(c1)CCN2C(C)=O)c1cccc(C)c1,"inconclusive [activator, single point]",

SMILES,Potency,"activity, positive = re-replication"
COc1ccc(-c2csc(NC(=O)COc3ccc(N(C)S(=O)(=O)c4ccc(C)cc4)cc3)n2)cc1,inactive,
Nc1ccc2oc3ccc(N)cc3c(=O)c2c1,"inconclusive [activator, single point]",
CSc1ccc(CN(C)CC(=O)Nc2c(F)cccc2F)cc1,inactive,
O=C(Nc1ccc(Cl)cn1)C1CCCN(c2ncnc3c2nc2n3CCCCC2)C1 (stereo not drawn),inactive,
Cc1nc(S/C(=C\c2ccc(OCc3ccccc3Cl)cc2)C(=O)O)n[nH]1,"inconclusive [activator, single point]",
CCC1Sc2ccc(S(=O)(=O)CCC(=O)Nc3c(Cl)cc(OC)cc3OC)cc2NC1=O (stereo not drawn),inactive,
O=C(Nc1ccn(-c2ccccc2)n1)c1ccc(Cl)cc1,"inconclusive [activator, partial curve]",
CCCOC(=O)c1ccc(Oc2cn[nH]c2-c2ccc(OCC)cc2O)cc1,"inconclusive [activator, partial curve, poor fit]",
CCCS(=O)(=O)N1CCN(C(=O)c2ccc(-c3ccccc3)cc2)CC1,"inconclusive [activator, single point]",
COc1cccc(/C=N/NC(N)=S)c1OCc1ccccc1Cl,"inconclusive [activator, partial curve, poor fit]",
C=CCSc1nc2ccccc2n1C(=O)/C=C/c1ccc(OC)c(OC)c1,active: 4.11 µM,
C=CCn1c(P(C)(=O)O)nc2ccccc21,"inconclusive [activator, full curve, poor fit]",
C=C(C)Cn1c(CN(C)Cc2ccccc2)nc2c1c(=O)n(C)c(=O)n2C,inactive,
O=C(O)c1ccccc1Nc1ccc([N+](=O)[O-])c2nonc12,"inconclusive [activator, full curve, poor fit]",
CC(C)c1nnc(NC(=O)CCC(=O)N2CCN(C3CCCCC3)CC2)s1,"inconclusive [activator, single point]",
Cn1c(=O)[nH]c(=O)c2c1nc(N1CCNCC1)n2Cc1cccc2ccccc12,"inconclusive [activator, partial curve, poor fit]",
O=C(c1cnn2c(C(F)(F)F)cc(-c3ccc(F)cc3)nc12)N1CCc2ccccc2C1,"inconclusive [activator, partial curve, poor fit]",
Brc1ccc(/C=N/Nc2ccc3ccccc3n2)cc1,"inconclusive [activator, single point]",
O=C(CSc1ccccc1)Nc1ccc(-c2nc3ccccc3[nH]2)cc1,"inconclusive [activator, single point]",
COc1ccc(CCNC(=O)c2ccc(CNS(=O)(=O)c3cc(C)ccc3C)cc2)cc1OC,inactive,
CC1=NN(C(N)=S)C(=O)C1N=Nc1ccc(S(N)(=O)=O)cc1 (stereo not drawn),inactive,
CC1(C)Cc2c(cnn2-c2cccc(F)c2)C(NC(=O)c2csnn2)C1 (stereo not drawn),inactive,
CN(C(=O)COC(=O)COc1ccc(Cl)cc1Cl)c1c(N)n(Cc2ccccc2)c(=O)[nH]c1=O,inactive,

SMILES,Potency,"activity, positive = re-replication"
CN(CC(=O)NCCc1ccc(S(N)(=O)=O)cc1)c1ccccc1,"inconclusive [activator, partial curve, poor fit]",
Cc1ccc(Cl)cc1NC(=O)CN1C(=O)NC(C)(C2CC2)C1=O (stereo not drawn),"inconclusive [activator, partial curve, poor fit]",
NC(=O)c1c(NC(=O)c2c(F)cccc2F)sc2c1CCN(Cc1ccccc1)C2,active: 25.9 µM,
CC12CCC(=O)N1C(C(=O)N1CCN(S(=O)(=O)c3ccc(Br)cc3Cl)CC1)CS2 (stereo not drawn),"inconclusive [activator, partial curve, poor fit]",
COC(=O)C1=C(CN2CCc3ccccc32)NC(=O)NC1c1cc(C)ccc1C (stereo not drawn),inactive,
CCCNC(=O)c1ccc(N2CCC3(CC2)CC(c2cccc(Br)c2)=NO3)c(NC(=O)c2ccco2)c1,"inconclusive [activator, full curve, poor fit]",
N#CC1C(=O)NC(=O)CC12CCCCC2 (stereo not drawn),inactive,
COc1cc(NC(=O)c2cccs2)c(OC)cc1NC(=O)CCC(=O)Nc1ccc(C)cc1,active: 20.6 µM,
CCN(CC)CCOC(=O)C1(c2ccc([N+](=O)[O-])cc2)CCCC1,"inconclusive [activator, full curve, poor fit]",
O=C(Nc1cc(Cl)ccc1-n1cncn1)c1cc(S(=O)(=O)N2CCOCC2)ccc1F,,inconclusive: -27.1% [activator]
CC1CCCC(C)N1C(=O)CSc1nnc(COc2cccc3cccnc23)o1 (stereo not drawn),"inconclusive [activator, single point]",
NC(=O)[C@H]1CC2(CC(c3cccc(NC(=O)CC(c4ccccc4)c4ccccc4)c3)=NO2)CN1C(=O)c1ccccc1C(=O)c1ccccc1 (stereo partly drawn),"inconclusive [activator, partial curve, poor fit]",
CCOC(=O)c1c(NC(=O)c2cccs2)sc(CC)c1-c1cccs1,"inconclusive [activator, single point]",
Cc1ccnc(N2CCN(C(=O)CSc3nc4ccccc4nc3N3CCCCC3)CC2)c1,"inconclusive [activator, single point]",
O=c1c2ccccc2nc(COc2ccccc2)n1/N=C/c1cn[nH]c1-c1ccccc1,"inconclusive [activator, partial curve, poor fit]",
OC1(c2ccccc2)C/C(=N\n2cnnc2)C=C1c1ccccc1 (stereo not drawn),inactive,
CCC(C(=O)NC1CC1)n1nc(C)c2c(C)n(-c3ccccc3)nc2c1=O (stereo not drawn),inactive,
COc1ccccc1-c1n[nH]c2c1[C@H](C)CC[C@H]2C(C)C,"inconclusive [activator, partial curve, poor fit]",
CCc1cc(=O)[nH]c(SCCc2ccccc2)n1,"inconclusive [activator, partial curve, poor fit]",
COc1ccc(/C=N/Nc2c(Cl)cc(Cl)cc2Cl)cc1CN1CCOCC1,"inconclusive [activator, partial curve, poor fit]",
CC(c1ccccc1)n1cc(C(=O)NCC2COc3ccccc3O2)nn1 (stereo not drawn),inactive,
COc1cccc(N2CCN(c3ccc4nnc(CCC(=O)Nc5ncccc5C)n4n3)CC2)c1,inactive,
